From the antibiotic and cytotoxicity screens of Wong et al. (2023)
Some of the results follow.

Experiments:
HSkMC = human skeletal muscle cells; test: cytotoxicity call (relative viability < 0.9); conditions: 10 µM
HepG2 = test: cytotoxicity call (relative viability < 0.9); conditions: 10 µM
S. aureus RN4220 = test: growth inhibition call (relative growth <= 0.2); conditions: 50 µM

| Structure (SMILES) | cytotoxicity call (HSkMC) | cytotoxicity call (HepG2) | growth inhibition call (S. aureus RN4220) |
| --- | --- | --- | --- |
| O=C(Nc1ccc(C(F)(F)F)cc1)Nc1ccc2c(c1)[C@H]1C[C@H](CC(=O)N3CCc4ccccc4C3)O[C@H](CO)[C@H]1O2 | active | inactive | inactive |
| C[C@@H]1CN([C@@H](C)CO)C(=O)c2cccc(NS(=O)(=O)c3ccc(Cl)cc3)c2O[C@H]1CN(C)Cc1ccc(C(F)(F)F)cc1 | inactive | inactive | inactive |
| C[C@H]1CCCCO[C@H](CN(C)C(=O)CCC(F)(F)F)[C@@H](C)CN([C@@H](C)CO)C(=O)c2cc(NS(=O)(=O)c3cccs3)ccc2O1 | inactive | inactive | inactive |
| C[C@@H]1CCCCO[C@@H](CN(C)C(=O)Nc2ccc3c(c2)OCO3)[C@H](C)CN([C@@H](C)CO)C(=O)c2cc(NC(=O)Nc3ccccc3)ccc2O1 | inactive | inactive | inactive |
| C[C@@H]1CCCCO[C@@H](CN(C)S(=O)(=O)c2cccs2)[C@H](C)CN([C@@H](C)CO)C(=O)c2cc(NS(C)(=O)=O)ccc2O1 | inactive | inactive | inactive |
| Cn1cnc(=O)c2ccccc21 | inactive | inactive | inactive |
| C[C@@H]1CN([C@@H](C)CO)C(=O)Cc2cc(NC(=O)c3ccncc3)ccc2O[C@@H]1CN(C)S(=O)(=O)c1ccccc1 | inactive | active | inactive |
| Cc1noc(C)c1NC(=O)N(C)C[C@H]1OCCCC[C@@H](C)Oc2ccc(NC(=O)c3ccccc3)cc2C(=O)N([C@H](C)CO)C[C@@H]1C | inactive | inactive | inactive |
| O=C1C=CC(O)(/C=C/C(=O)O[C@@H]2[C@@H](O)[C@H](Oc3ccc(O)cc3)O[C@H](CO)[C@H]2O)C=C1 | inactive | inactive | inactive |
